# According to the supplement of paper PMC8728848:
# The list shows a part of the results.
# B1: Epa9 (Candida glabrata), CAGL0A01386g (protein)
# chain: MGSSHHHHHHSSGLVPRGSHMDITPFAHYPRPEGCSSPPNAVSVGLHMDLYNYPYLYVKNPRTGFTNDTDSDADGETDGDSAGGIEGRAGQCWNPEYQDPNFPRYGYKKYGSFGSSDHVNGKISWDHNEFKEGCKPIMARLPTAYNYPAKITFSNFTMVLSGYFKPKSTGLYKFEIHADDFILFNFGSKNAFECCNREESIDNFGPYVAYAMWPNEADQELEVYLFEDSYYPIRLFYNNRDYHSKFMVGFYPPNTEEITYDFDGYLYMLDDTGNECKDSIRYKTVCDD
# Experiments:
# Assay in all cases: glycan array binding signal (z-score within array); higher = stronger binding
# Details in all cases: glycan notation: IUPAC condensed, linker removed
# [1] = target: Neu5Ac(a2-6)GalNAc(b1-4)GlcNAc
# Summary of the method: (§1)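 The Consortium for Functional Glycomics database supplied 3228 glycan arrays, of which those lacking an available protein sequence were dropped. The binding signal, a within-array Z-score, was averaged across arrays of the same protein sequence and across linkers. Negative scores can be read as non-binding.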
# [2] = target: Neu5Ac(a2-6)GalNAc(b1-4)GlcNAc6S
# Summary of the method: as §1
# [3] = target: Neu5Ac(a2-6)GlcNAc(b1-4)GlcNAc
# Summary of the method: as §1
# [4] = target: Neu5Ac(a2-6)GlcNAc(b1-4)GlcNAc(b1-4)GlcNAc
# Summary of the method: as §1
# Neu5Ac(a2-8)Neu5Ac = target: Neu5Ac(a2-8)Neu5Ac
# Summary of the method: as §1
# [5] = target: Neu5Ac(a2-8)Neu5Ac(a2-3)Gal(b1-3)GalNAc(b1-4)[Neu5Ac(a2-3)]Gal(b1-4)Glc
# Summary of the method: as §1
# [6] = target: Neu5Ac(a2-8)Neu5Ac(a2-3)Gal(b1-3)GalNAc(b1-4)[Neu5Ac(a2-8)Neu5Ac(a2-3)]Gal(b1-4)Glc
# Summary of the method: as §1
# [7] = target: Neu5Ac(a2-8)Neu5Ac(a2-3)Gal(b1-4)Glc
# Summary of the method: as §1
# [8] = target: Neu5Ac(a2-8)Neu5Ac(a2-3)Gal(b1-4)GlcNAc
# Summary of the method: as §1
# [9] = target: Neu5Ac(a2-8)Neu5Ac(a2-3)[Gal(b1-3)GalNAc(b1-4)]Gal(b1-4)Glc
# Summary of the method: as §1
# [10] = target: Neu5Ac(a2-8)Neu5Ac(a2-3)[GalNAc(b1-4)]Gal(b1-4)Glc
# Summary of the method: as §1
# [11] = target: Neu5Ac(a2-8)Neu5Ac(a2-8)Neu5Ac
# Summary of the method: as §1
# [12] = target: Neu5Ac(a2-8)Neu5Ac(a2-8)Neu5Ac(a2-3)Gal(b1-4)Glc
# Summary of the method: as §1
# [13] = target: Neu5Ac(a2-8)Neu5Ac(a2-8)Neu5Ac(a2-3)[Gal(b1-3)GalNAc(b1-4)]Gal(b1-4)Glc
# Summary of the method: as §1
# [14] = target: Neu5Ac(a2-8)Neu5Ac(a2-8)Neu5Ac(a2-3)[GalNAc(b1-4)]Gal(b1-4)Glc
# Summary of the method: as §1
# [15] = target: Neu5Ac(a2-8)Neu5Ac(a2-8)Neu5Ac(a2-8)Neu5Ac(a2-3)[GalNAc(b1-4)]Gal(b1-4)Glc
# Summary of the method: as §1
# [16] = target: Neu5Ac(a2-8)Neu5Gc(a2-3)Gal(b1-4)GlcNAc
# Summary of the method: as §1
# [17] = target: Neu5Ac(b2-6)Gal(b1-4)GlcNAc
# Summary of the method: as §1
# Neu5Ac(b2-6)GalNAc = target: Neu5Ac(b2-6)GalNAc
# Summary of the method: as §1
# [18] = target: Neu5Ac9Ac(a2-3)Gal(b1-3)GlcNAc
# Summary of the method: as §1
# [19] = target: Neu5Ac9Ac(a2-3)Gal(b1-4)GlcNAc
# Summary of the method: as §1
# [20] = target: Neu5Ac9Ac(a2-6)Gal(b1-4)GlcNAc
# Summary of the method: as §1
# [21] = target: Neu5Gc(a2-3)Gal(b1-3)GlcNAc
# Summary of the method: as §1
# [22] = target: Neu5Gc(a2-3)Gal(b1-3)[Fuc(a1-4)]GlcNAc
# Summary of the method: as §1
# Neu5Gc(a2-3)Gal(b1-4)Glc = target: Neu5Gc(a2-3)Gal(b1-4)Glc
# Summary of the method: as §1
# [23] = target: Neu5Gc(a2-3)Gal(b1-4)GlcNAc
# Summary of the method: as §1
# [24] = target: Neu5Gc(a2-3)Gal(b1-4)GlcNAc(b1-3)Gal(b1-4)GlcNAc(b1-2)Man(a1-3)[Neu5Gc(a2-3)Gal(b1-4)GlcNAc(b1-3)Gal(b1-4)GlcNAc(b1-2)Man(a1-6)]Man(b1-4)GlcNAc(b1-4)GlcNAc
# Summary of the method: as §1
# [25] = target: Neu5Gc(a2-3)Gal(b1-4)[Fuc(a1-3)]GlcNAc
# Summary of the method: as §1
# [26] = target: Neu5Gc(a2-6)Gal(b1-4)GlcNAc
# Summary of the method: as §1
# Neu5Gc(a2-6)GalNAc = target: Neu5Gc(a2-6)GalNAc
# Summary of the method: as §1
# [27] = target: Neu5Gc(a2-8)Neu5Ac(a2-3)Gal(b1-4)GlcNAc
# Summary of the method: as §1
# [28] = target: Neu5Gc(a2-8)Neu5Gc(a2-3)Gal(b1-4)GlcNAc
# Summary of the method: as §1
# [29] = target: Neu5Gc(a2-8)Neu5Gc(a2-3)Gal(b1-4)GlcNAc(b1-3)Gal(b1-4)GlcNAc
# Summary of the method: as §1
# [30] = target: Neu5Gc(a2-8)Neu5Gc(a2-6)Gal(b1-4)GlcNAc
# Summary of the method: as §1
# [31] = target: Neu5Gc(b2-6)Gal(b1-4)GlcNAc
# Summary of the method: as §1
binder,measurement,setting,value
B1,glycan array binding signal (z-score),[1],-0.519
same,glycan array binding signal (z-score),[2],-0.452
same,glycan array binding signal (z-score),[3],-0.448
same,glycan array binding signal (z-score),[4],-0.485
same,glycan array binding signal (z-score),Neu5Ac(a2-8)Neu5Ac,-0.517
same,glycan array binding signal (z-score),[5],-0.395
same,glycan array binding signal (z-score),[6],0.299
same,glycan array binding signal (z-score),[7],-0.54
same,glycan array binding signal (z-score),[8],-0.481
same,glycan array binding signal (z-score),[9],0.516
same,glycan array binding signal (z-score),[10],-0.564
same,glycan array binding signal (z-score),[11],-0.463
same,glycan array binding signal (z-score),[12],-0.585
same,glycan array binding signal (z-score),[13],-0.301
same,glycan array binding signal (z-score),[14],-0.596
same,glycan array binding signal (z-score),[15],-0.649
same,glycan array binding signal (z-score),[16],-0.494
same,glycan array binding signal (z-score),[17],-0.481
same,glycan array binding signal (z-score),Neu5Ac(b2-6)GalNAc,-0.48
same,glycan array binding signal (z-score),[18],-0.479
same,glycan array binding signal (z-score),[19],-0.45
same,glycan array binding signal (z-score),[20],-0.486
same,glycan array binding signal (z-score),[21],-0.457
same,glycan array binding signal (z-score),[22],-0.462
same,glycan array binding signal (z-score),Neu5Gc(a2-3)Gal(b1-4)Glc,-0.47
same,glycan array binding signal (z-score),[23],-0.465
same,glycan array binding signal (z-score),[24],-0.421
same,glycan array binding signal (z-score),[25],-0.435
same,glycan array binding signal (z-score),[26],-0.428
same,glycan array binding signal (z-score),Neu5Gc(a2-6)GalNAc,-0.467
same,glycan array binding signal (z-score),[27],-0.456
same,glycan array binding signal (z-score),[28],-0.455
same,glycan array binding signal (z-score),[29],-0.468
same,glycan array binding signal (z-score),[30],-0.488
same,glycan array binding signal (z-score),[31],-0.447
